Where “and” joins values, the source holds several entries; their conditions need not be identical. Identical values can stand only once. The whole screen tested about 420,000 compounds, of which about 64,000 (15%) were called active. This list was built around the results that the source calls inconclusive (neither active nor inactive); the mix of calls is not that of the screen. Calls come from the whole dose curve; as a rule, active = well fitted inhibition curve with a large enough effect; inconclusive = small, poorly fitted or top-dose-only effect; inactive = flat fitted curve, though single readings scatter. Where the call is inconclusive, the potency comes from a doubtful curve fit.
Assay: qHTS for Inhibitors of human tyrosyl-DNA phosphodiesterase 1 (TDP1): qHTS in cells in absence of CPT; note: nearly all actives have a fitted effect of over 55% in size
Conditions: DT40 Tdp1-/- hTDP1 cells, no CPT, ATP luminescence, 48 h; activity change, negative = growth inhibition: at 46.2 µM (top of the series) unless noted
How it was run: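 A cellular qHTS used chicken DT40 cells lacking endogenous Tdp1 but carrying stably transfected human TDP1. Compounds were applied without camptothecin, and cell growth kinetics were judged by ATP-dependent luminescence after ≥48 hr.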
% is set by controls: 0 for no effect and ±100 for the full control effect; potency is the fitted concentration of half-maximal effect; tags give direction and shape of the fitted curve.

SMILES	Potency	activity change, negative = growth inhibition
COc1cccc(-c2noc(CCC(=O)NCC3CCCO3)n2)c1 (stereo not given)	inactive	–
O=C1C(O)=CC(=C(c2ccccc2)c2ccccc2)c2ccccc21	inconclusive: 29.1 µM [inhibitor, single point]	–
COc1ccc(OC)c(S(=O)(=O)Nc2ccc(O)c3ccccc23)c1	active: 3.26 µM	–
Cc1ccnc(NS(=O)(=O)c2ccc(NC(=O)c3ccc(S(=O)(=O)N4CCCC4)cc3)cc2)n1	inactive	–
CC(CCc1ccccc1)NC(=O)CNC(=O)N1CC(=O)Nc2ccccc21 (stereo not given)	inactive	–
CCOCc1cc(CN2CCN(c3cccc(C(F)(F)F)c3)CC2)c(O)c2ncccc12	active: 6.51 µM	–
COc1cccc(-n2c(SCc3cccc(C)c3)nc3c([nH]c4ccccc43)c2=O)c1	inconclusive: 16.4 µM [inhibitor, single point]	–
NS(=O)(=O)c1ccc(NC(=S)NCc2cccs2)cc1	inactive	–
CC(C)COc1ccc(C(=S)N2CCCC2)cc1	inconclusive: 25.9 µM [inhibitor, single point]	–
Cn1c(CC(=O)Nc2ccccc2F)nnc1SCC(=O)NC1CCCCC1	inactive	–
COC(=O)CC1(C(=O)OC)Oc2ccc(Br)cc2C(=O)N1c1cc(Cl)cc(Cl)c1 (stereo not given)	inconclusive: 18.4 µM [inhibitor, single point]	–
COc1ccccc1NC(=O)c1cc2ccc(O)cc2o/c1=N\O	inconclusive: 18.4 µM [inhibitor, partial curve, poor fit]	–
CCOC(=O)c1c(S(=O)(=O)N(C)C2CCCCC2)c(C)n(C)c1C	inactive	–
COc1ccc(N2CCN(C(=O)CSc3ncnc4c3cnn4-c3ccccc3C)CC2)cc1	–	inconclusive: -33.9% [inhibitor]
CCOc1c2ccc(C(=O)NC3CCCc4ccccc43)cc2nn1C (stereo not given)	inconclusive: 18.4 µM [inhibitor, single point]	–
CN(Cc1ccc(Cl)s1)C(=O)CN1C(=O)N(C)C2(CCCCC2)C1=O	inactive	–
Cc1ccc(NC2=C(Cl)C(=O)OC2OC(C)C)c(C)c1 (stereo not given)	inconclusive: 20.6 µM [inhibitor, single point]	–
COc1ccc(CCN2C(=O)c3[nH]nc(-c4ccccc4O)c3C2c2cccc(O)c2)cc1OC (stereo not given)	inconclusive: 25.9 µM [inhibitor, single point]	–
COCn1c(COc2ccc3ccccc3c2)nc2ccccc21	inconclusive: 29.1 µM [inhibitor, single point]	–
COc1ccc(COc2ccc3c(C)cc(=O)oc3c2)cc1	inconclusive: 20.6 µM [inhibitor, single point]	–
CC1(C)CC(=O)C/C(=N/NC(=O)CCCOc2ccc(Cl)cc2Cl)C1	–	inconclusive: -35% [inhibitor]
N#Cc1ccc(-n2c(-c3ccccc3)nnc2-c2ccccc2)cc1C#N	active: 15.8 µM	–
Cc1nc2ccccc2c2oc(C(=O)Nc3ccc4c(c3)OCCO4)cc12	active: 14.6 µM	–
O=C(Nc1ccc(Br)cc1)c1cc(-c2ccc3c(c2)OCO3)on1	inactive	–

SMILES	Potency	activity change, negative = growth inhibition
Cc1ccccc1N=Nc1c(N)n[nH]c1N	inconclusive: 29.1 µM [inhibitor, single point]	–
COc1ccc(C(O)c2nc(-c3cc4ccccc4o3)cs2)cc1 (stereo not given)	inconclusive: 20.6 µM [inhibitor, single point]	–
O=C(Cn1c(=O)oc2cc(S(=O)(=O)N3CCCC3)ccc21)Nc1ccccc1Br	inactive	–
O=C(NCCCN1CCN(c2ccccc2)CC1)c1sc2ncccc2c1-n1cccc1	inconclusive: 23.1 µM [inhibitor, single point]	–
COc1cc(F)ccc1-c1cc(C(=O)NCc2cccc(Cl)c2)[nH]n1	inconclusive: 25.9 µM [inhibitor, single point]	–
O=C(Cc1ccccc1[N+](=O)[O-])Nc1cccc(S(=O)(=O)NC2=NCCCCC2)c1	inactive	–
COc1ccc(Nc2nc(-c3ccccc3)nc3ccccc23)cc1S(=O)(=O)N1CCOCC1	active: 8.2 µM	–
COC(=O)COc1cccc2c(=O)n(CC(=O)N3CCC(C)CC3)ccc12	inactive	–
CCOC(=O)c1nc2sc(C)c(C)c2c(=O)[nH]1	inactive	–
CC(C)(C)OC(=O)NCCCC[C@H](NC(=O)c1nc[nH]c1C(=O)NCC(=O)OCc1ccccc1)C(=O)OC(C)(C)C	inconclusive: 25.9 µM [inhibitor, single point]	–
O=C(NCCc1cccs1)C12CN(Cc3ccccc3)CC1C(c1cccc([N+](=O)[O-])c1)=NO2 (stereo not given)	inconclusive: 20.6 µM [inhibitor, single point]	–
Cc1onc(-c2ccccc2Cl)c1C(=O)N/N=C(\N)COc1ccc(Cl)cc1	active: 13 µM	–
Cc1ccc(OC(C)C(=O)Nc2ccncc2)cc1C (stereo not given)	inconclusive: 20.6 µM [inhibitor, partial curve]	–
O=C(Nc1cc(-c2ccccc2)nn1C1CCCCC1)c1ccc(Cl)cc1	inconclusive: 23.1 µM [inhibitor, single point]	–
COc1cccc(CNC(=O)Cc2nc3nc(C)cc(C)n3n2)c1	inactive	–
Nc1ncc(S(=O)(=O)NCc2ccccc2)cn1	inactive	–
O=C(NCc1ccccc1)C(c1ccccc1)N(Cc1cccs1)C(=O)c1cnccn1 (stereo not given)	inconclusive: 18.4 µM [inhibitor, partial curve]	–
CCCSc1nc2c(c(=O)n1CC)SC(C)C2 (stereo not given)	inconclusive: 16.4 µM [inhibitor, single point]	–
COc1cc(S(=O)(=O)NCCc2c(C)[nH]c3ccc(C)cc23)ccc1Br	inconclusive: 25.9 µM [inhibitor, single point]	–
N#C/C(=C\c1ccccc1)c1n[nH]c(Cn2cncn2)n1	inactive	–
Cc1ccc(Cc2c(-c3cccc(Br)c3)nc3c(C)cc(Br)cn23)cc1	–	inconclusive: -31.7% [inhibitor]
COc1ccc(N(C(=O)c2ccccc2C)S(=O)(=O)c2ccc(Cl)cc2)cc1	inconclusive: 29.1 µM [inhibitor, single point]	–
O=[N+]([O-])c1ccccc1CNc1ccc(F)c(Cl)c1	inconclusive: 29.1 µM [inhibitor, single point]	–
CCCn1c(C2CCCN2c2nc(-c3ccc(C)cc3)cs2)nc2cc(Cl)c(N3CCCCC3)cc21 (stereo not given)	inconclusive: 18.4 µM [inhibitor, single point]	–

SMILES	Potency	activity change, negative = growth inhibition
COC(=O)N/N=C/c1cn(Cc2ccc(F)cc2)c2ccccc12	inconclusive: 18.4 µM [inhibitor, partial curve]	–
CCOC(=O)c1c(NC(=O)COC(=O)c2nccnc2N)sc2c1CCC2	inconclusive: 32.6 µM [inhibitor, single point]	–
CC(C)OCc1c(C(=O)OC/C(O)=C(\C#N)c2nc3ccccc3[nH]2)oc2ccccc12	inconclusive: 6.51 µM [inhibitor, single point]	–
CCCOc1ccc2c(=O)c(-c3cc(C(=O)OC)oc3C)c(C)oc2c1	active: 18.4 µM	–
COC(=O)Cc1csc(/N=C/c2c(O)n(-c3cccc(C(F)(F)F)c3)c(=O)c3ccccc23)n1	active: 16.4 µM	–
Cc1cccc(NC(=O)c2ccc(F)c(S(=O)(=O)NCc3ccco3)c2)c1	inconclusive: 29.1 µM [inhibitor, single point]	–
O=C(CSc1cccc2cccc(Cl)c12)NCc1cccs1	active: 25.9 µM	–
CCCCCc1cc(=O)oc2c(C(CCN(CC)CC)c3ccc(OC)cc3)c(OC)cc(OC)c12 (stereo not given)	inconclusive: 29.1 µM [inhibitor, single point]	–
C=CCc1ccc(OCCn2cccc2C=O)c(OC)c1	inconclusive: 23.1 µM [inhibitor, single point]	–
O=C(NCCc1nc2ccccc2n1Cc1ccccc1F)c1ccc(F)cc1	inconclusive: 29.1 µM [inhibitor, single point]	–
CCSC1=N/C(=C\C=C2/Oc3ccccc3N2CC)C(=O)S1	inconclusive: 23.1 µM [inhibitor, single point]	–
Cc1nnc(SCC(=O)N(C)C2CCS(=O)(=O)C2)n1Cc1ccccc1 (stereo not given)	inactive	–
CC(=O)Nc1ccc(NC(=O)C(C)OC(=O)CSCc2cccc(Cl)c2)cc1 (stereo not given)	inconclusive: 29.1 µM [inhibitor, partial curve, poor fit]	–
COc1ccc(C(=O)c2cn(Cc3ccccc3)c3ccccc3c2=O)cc1OC	inconclusive: 18.4 µM [inhibitor, single point]	–
c1csc(-c2nc(N3CCN(Cc4ccc5c(c4)OCCO5)CC3)c3ccccc3n2)c1	inconclusive: 31.6 µM [inhibitor, single point]	–
O=C(Nc1cccc(C(=O)N2CCN(c3ccc(F)cc3)CC2)c1)c1ccccc1	inconclusive: 29.1 µM [inhibitor, single point]	–
COc1c2c(cc3oc(=O)c4c5ccc(O)cc5oc4c13)OC(C)(C)CC2	active: 16.4 µM	–
CCOc1ccc(/C=N/N2C(=O)C(CC(=O)Nc3ccc(F)cc3F)SC2=NC)cc1OC (stereo not given)	inconclusive: 20.6 µM [inhibitor, single point]	–
CN1C(C(=O)Nc2cccc(O)c2)=CC(c2cccs2)=NS1(=O)=O	inconclusive: 29.1 µM [inhibitor, single point] and inconclusive: 23.1 µM [inhibitor, single point]	–
Cc1ccc(/C=C2\SC(=S)N(CCC(=O)Nc3ccc(O)cc3)C2=O)cc1	inactive	–
O=[N+]([O-])c1ccc(COc2ccccc2CN2CCCCC2)cc1	inconclusive: 16.4 µM [inhibitor, single point]	–
O=[N+]([O-])C(/C=C(\Cl)[N+](=O)[O-])=C1N(Cc2ccc(Cl)nc2)CCN1Cc1ccc(Cl)nc1	inconclusive: 13 µM [inhibitor, single point]	–
